According to PubChem BioAssay AID2147 (National Center for Advancing Translational Sciences (NCATS), 2009):
Hit rate of the full screen: of about 230,000 compounds, about 3,600 (1.6%) were called active. This list was built around the results that the source calls inconclusive (neither active nor inactive); the mix of calls is not that of the screen. Calls come from the whole dose curve; as a rule, active = well fitted inhibition curve with a large enough effect (not every such curve was filed as active); inconclusive = small, poorly fitted or top-dose-only effect, or another doubt; inactive = no such curve, though single readings can be large or run the other way. A potency beside an inconclusive call is a rough fit, not a confirmed value.

Molecular target: Lysine-specific demethylase 4E (Homo sapiens) (UniProt B2RXH2)
Test: qHTS Assay for Inhibitors of Human Jumonji Domain Containing 2E (JMJD2E)
Settings: JMJD2E catalytic domain, FDH-coupled NADH fluorescence (FDH is formaldehyde dehydrogenase); series mostly up to 57.1 µM; activity change, negative = inhibition: at the top concentration
Note: nearly all actives have a fitted effect of over 50% in size.
Potency is the fitted concentration of half-maximal effect; tags give direction and shape of the fitted curve.
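Throughout, for activity change, negative = inhibition: 0% = wells with enzyme and -100% = buffer wells without enzyme.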

Chain of UniProt B2RXH2 (B2RXH2 whole entry, looked up, the tested form may be a part): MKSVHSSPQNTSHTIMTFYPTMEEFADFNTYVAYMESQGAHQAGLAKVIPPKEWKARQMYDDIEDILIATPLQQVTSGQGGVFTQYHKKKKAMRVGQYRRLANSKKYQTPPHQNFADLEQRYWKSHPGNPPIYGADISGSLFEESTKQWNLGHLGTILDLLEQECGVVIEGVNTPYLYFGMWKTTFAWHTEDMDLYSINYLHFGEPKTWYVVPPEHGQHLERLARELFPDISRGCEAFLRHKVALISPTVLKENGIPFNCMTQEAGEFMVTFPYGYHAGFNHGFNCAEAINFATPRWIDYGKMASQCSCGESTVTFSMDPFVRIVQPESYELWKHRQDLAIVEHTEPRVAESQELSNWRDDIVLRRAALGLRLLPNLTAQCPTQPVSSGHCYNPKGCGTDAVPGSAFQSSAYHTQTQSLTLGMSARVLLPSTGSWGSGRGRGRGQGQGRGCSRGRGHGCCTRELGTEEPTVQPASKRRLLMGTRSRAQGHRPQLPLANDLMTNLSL

Row | Structure (SMILES) | Potency | activity change, negative = inhibition
1 | O=C(/C=C/c1cccc2ccccc12)N1CCOCC1 | inconclusive: 25.1 µM [inhibitor, single point] | –
2 | Cc1cc(C)n(-c2ccc(C(=O)Nc3cccc(S(=O)(=O)N(C)C)c3)cc2)n1 | – | inactive: 10.7%
3 | CCCn1nc2cc(C(=O)NCCCCc3ccccc3)ccc2c1OCC | inconclusive: 31.6 µM [inhibitor, partial curve] | –
4 | CCN(CC)CCNc1nc2cc(OC)c(OC)cc2c2nc(-c3ccccc3)nn12 | inconclusive: 3.55 µM [inhibitor, single point] | –
5 | Cc1cc(C)c2c(n1)sc1c(N3CCCCC3)ncnc12 | inconclusive: 35.5 µM [inhibitor, partial curve] | –
6 | CC1CCCCN1C(=O)C1CC(c2ccc(F)cc2)=NO1 (configuration not stated) | – | inactive: 6.15%
7 | Cc1ccc(S(=O)(=O)NCc2ccc(C(=O)N3CCc4ccccc4C3)cc2)cc1 | – | inactive: 1.26%
8 | C=C(C)CN(CC)c1nc(N)c(C#N)c(CC#N)c1C#N | inconclusive: 35.5 µM [inhibitor, single point] | –
9 | COc1ccc(N2CCN(c3oc(Cc4cccc5ccccc45)nc3C#N)CC2)cc1 | inconclusive: 35.5 µM [inhibitor, single point] | –
10 | COc1ccc2c(C)cc(=O)[nH]c2c1 | inconclusive: 39.8 µM [inhibitor, single point] | –
11 | Cc1ccc(C(=O)Nc2ccc(NC(=O)c3cccs3)cc2)cc1[N+](=O)[O-] | – | inactive: 13.4%
12 | CCn1c2ccc(CC(=O)O)cc2c2cc(CC(=O)O)ccc21 | inconclusive: 39.8 µM [inhibitor, single point] | –
13 | Cc1ccc(OCC(=O)Nc2ccccc2-c2ccccc2)cc1 | – | inactive: -4.73%
14 | CC(C)=CCC/C(C)=C/CC/C(C)=N/O | inconclusive: 25.1 µM [inhibitor, partial curve] | –
15 | COc1cc(C2C(C(C)=O)=C(O)C(=O)N2c2ccc(C)cc2)ccc1O (configuration not stated) | inconclusive: 25.1 µM [inhibitor, single point] | –
16 | CCOC(=O)COc1nc2c(c(-c3ccco3)c1C#N)CCc1ccccc1-2 | inconclusive: 22.4 µM [inhibitor, partial curve] | –
17 | Cc1ccc2nc(N3CCN(C)CC3)c(C#N)cc2c1 | inconclusive: 28.2 µM [inhibitor, partial curve] | –
18 | CC(C)CC(OC(=O)c1cccs1)C(=O)NCc1ccco1 (configuration not stated) | – | inactive: 0.704%
19 | c1ccc2c(c1)CCN(C1=Nc3cccc4cccc1c34)C2 | inconclusive: 35.5 µM [inhibitor, single point] | –
20 | Cc1nnc(N/N=C/c2cc([N+](=O)[O-])c(N3CCC(C)CC3)cc2N2CCC(C)CC2)n1N | inconclusive: 2 µM [inhibitor, full curve, poor fit] | –
21 | CC1(C)CC(=O)/C(=C(\O)CCCN2C(=O)c3ccccc3C2=O)C(=NCC(=O)O)C1 | – | inactive: 5.46%
22 | CCCSC1=C(C#N)C(c2ccc(OC)cc2)C2=C(CC(C)(C)CC2=O)N1 (configuration not stated) | inconclusive: 39.8 µM [inhibitor, single point] | –
23 | N#Cc1nc(-c2ccco2)oc1N1CCOCC1 | inconclusive: 31.6 µM [inhibitor, partial curve] | –
24 | O=C(CSc1cccc2cccnc12)N/N=C/c1ccncc1 | inconclusive: 35.5 µM [inhibitor, single point] | –

Row | Structure (SMILES) | Potency | activity change, negative = inhibition
25 | CN(C(=O)COC(=O)c1cc(-c2ccc(Cl)s2)nc2ccccc12)C1CCS(=O)(=O)C1 (configuration not stated) | inconclusive: 25.1 µM [inhibitor, partial curve] | –
26 | CC(C)CC(C(=O)Oc1ccc2c3c(c(=O)oc2c1)CCC3)N1C(=O)c2ccccc2C1=O (configuration not stated) | inconclusive: 11.2 µM [inhibitor, partial curve] | –
27 | O=C(Nc1ccccc1C(=O)O)c1ccc(Br)c(S(=O)(=O)NCc2ccccc2)c1 | – | inactive: 5.14%
28 | O=c1cc(CN2CCN(c3ccc(O)cc3)CC2)nc2scc(-c3ccccc3)n12 | inconclusive: 39.8 µM [inhibitor, single point] | –
29 | C[C@@H](CCc1ccc(O)cc1)NCCc1ccc(O)c(O)c1 | active: 20 µM | –
30 | Cc1ccc(N/C(=C\C(=O)c2ccccc2)C(=O)O)cc1 | inconclusive: 25.1 µM [inhibitor, partial curve] | –
31 | O=C(COc1ccccc1)Nc1cccc2nsnc12 | inconclusive: 39.8 µM [inhibitor, single point] | –
32 | O=C(Nc1ccccc1[N+](=O)[O-])c1nc[nH]c1C(=O)NCCO | – | inactive: -1.43%
33 | O=c1cc(-c2ccccc2)[nH]n1-c1nc2ccccc2[nH]1 | inconclusive: 15.8 µM [inhibitor, partial curve] | –
34 | Brc1cccc(OCCN2CCCCC2)c1 | inconclusive: 25.1 µM [inhibitor, single point] | –
35 | COc1cccc(-n2c(SCC(=O)N3c4ccccc4CC3C)nnc2-c2ccco2)c1 (configuration not stated) | – | inactive: 8.02%
36 | O=Cc1ccc(N2CCCC2)c([N+](=O)[O-])c1 | – | inactive: -20.1%
37 | CN(C)S(=O)(=O)c1cccc(NC(=O)COC(=O)c2cc3ccccc3oc2=O)c1 | inconclusive: 31.6 µM [inhibitor, partial curve] | –
38 | COCc1cc(=O)[nH]c(-c2ccccc2OC(F)(F)F)n1 | – | inactive: 6.04%
39 | Cc1noc(C)c1COC(=O)CCCc1c[nH]c2ccccc12 | inconclusive: 35.5 µM [inhibitor, single point] | –
40 | COc1cccc(OCC(O)CN2CCN(c3ncccn3)CC2)c1 (configuration not stated) | inconclusive: 39.8 µM [inhibitor, single point] | –
41 | CCCSc1nc(N)c2c3c(sc2n1)CN(C)CC3 | inconclusive: 22.4 µM [inhibitor, partial curve] | –
42 | CCN1CCN(c2cc(C)c3cc(NC(=O)c4cccs4)ccc3n2)CC1 | – | inactive: -0.555%
43 | Cc1cc(C(=O)NCC(=O)OCC(=O)Nc2ccc(OC(F)F)cc2)ccc1[N+](=O)[O-] | – | inactive: -9.37%
44 | Cc1ccc(C)c2nc3sc(C(=O)N4CCCc5ccccc54)c(N)c3cc12 | – | inactive: -1.95%
45 | CCCCN(C)C(=O)c1coc(=O)c2ccccc12 | – | inactive: 1.04%
46 | COc1ccc(-c2nn3c(-c4ccc(F)cc4)nnc3s2)cc1 | inconclusive: 17.8 µM [inhibitor, single point] | –
47 | COC(=O)c1ccccc1NC(=O)CN1C(=O)C2CCCN2c2ncc(Cl)cc21 (configuration not stated) | inconclusive: 28.2 µM [inhibitor, partial curve] | –
